The values that follow come from PubChem BioAssay AID463173 (ICCB-Longwood Screening Facility, Harvard Medical School, 2010).

In all, about 52,000 compounds went through this assay and about 1,700 (3.3%) were called active. Cut-off read from the data, not from the text of the source: active = survival mostly below about 52% (no sharp cut-off); inactive = mostly above about 56%. The list shows a part of the results.

The subject of the assay is Wild type. In words: S. aureus survival, RN4220 and DeltatarO strains – OD600, teichoic acid synthesis inhibitors, primary screen (AID 463173). Particulars: S. aureus RN4220 wild type/DeltatarO growth, OD600, 18 h, active compounds read low, screened at 18.75 µg/mL (by protocol).
In the case of `Cc1cn2c(=O)cc(COc3ccccc3NC(=O)c3ccco3)nc2s1`, the survival is inactive: 83%. As for `Cc1c(C(=O)NCc2cccc(Cl)c2)sc2nc3n(c(=O)c12)CCC3`, the figure is inactive: 118%.

For `Cc1ccc(CNS(=O)(=O)c2cc3[nH]c(=O)c(=O)[nH]c3cc2C)cc1`, the survival was inactive: 60%. For `Cc1ccc(S(=O)(=O)NC2(C(F)(F)F)C(=O)Nc3c2c(=O)[nH]c(=O)n3-c2ccccc2)cc1` (stereo unspecified), the survival was inactive: 100%. In the case of `NC(=O)c1nc(-c2ccc(F)c(F)c2)nc2c1[nH]c(=O)n2-c1cccc(Cl)c1`, the survival is inactive: 91%. Turning to `CCN1CCN(CCCNC(=O)c2cnn(-c3ccc(C)cc3C)c2C2CCN(C(=O)OC(C)(C)C)CC2)CC1`, the survival was inactive: 148%. In the case of `O=S(=O)(c1ccc(Br)cc1)c1nnn2c1nc(N1CCOCC1)c1sccc12`, the survival is inactive: 75%.

With `C/C(=N/OC(=O)c1ccccc1)c1cccs1`, the survival is inactive: 107%. Consider `CSc1nc2sc3c(c2c(=O)n1Cc1ccccc1)CCC(C(C)(C)C)C3` (stereo unspecified), for which the survival was inactive: 113%.

`Cc1ccc(C(=O)Nc2ccc3nc(SCC(=O)N4CCCc5ccccc54)sc3c2)cc1`: the survival was inactive: 83%. Take `COc1ccc(N2CCN(CC(=O)c3ccc(OC)c(OC)c3)CC2)cc1`: the survival is inactive: 106%. `O=C(COC(=O)c1cc(-c2ccccc2)nc2ccccc12)c1ccc(Br)cc1`: the survival was inactive: 78%. On to `Cc1ccc(CNC(=O)Cc2ccc(NC(=O)N3CCSc4ncccc43)cc2)cc1`, for which the survival was inactive: 75%.

As for `CCOc1ccccc1NC(=O)CN1C(=O)COc2ccc(S(=O)(=O)NC3CCCC3)cc21`, the survival is inactive: 83%.

Turning to `CCN=C1Sc2nc3ccc(OCC)cc3cc2CN1CCOC`, the survival was inactive: 100%. As for `O=C1NN(c2ccccc2)C(=O)C2C3C=CC(C4CC34)C12` (stereo unspecified), the figure is inactive: 111%; as for `CCCNC(=O)c1ccc(Cn2c(=O)c3cccn3c3cccnc32)cc1`, inactive: 89%; as for `CCc1ccccc1NC(=O)c1ccc2c(c1)nnn2C1CCCC1`, inactive: 120%. In the case of `COc1ccccc1CNC(=O)CCC1N=C2c3ccccc3N=C(SCc3ccc(Cl)cc3)N2C1=O` (stereo unspecified), the survival is active: 0%. In the case of `COCCCNC(=O)CCCn1c(=O)c2cccn2c2ccccc21`, the survival was inactive: 84%. Regarding `Cc1ccc(N2CCN(S(=O)(=O)c3ccc(Cl)c4ccccc34)CC2)c(C)c1`, the survival is inactive: 88%. `O=C(Nc1cccc(C(F)(F)F)c1)c1cccc(C(=O)Nc2cccc(C(F)(F)F)c2)c1`: the survival is inactive: 86%. Regarding `COc1ccccc1N1CCN(S(=O)(=O)c2cccc3nsnc23)CC1`, the survival was inactive: 115%. `CCOC(=O)c1c(C)c(-c2ccccc2)n(CC(=O)Nc2cc(C)cc(C)c2)c1C`: the survival was inactive: 93%. As for `O=C1CCCc2cc(S(=O)(=O)NCC3CCC(C(=O)NCc4ccc(F)cc4)CC3)ccc2N1` (stereo unspecified), the survival is inactive: 93%. To `O=C(CSc1nnc(-c2cccc(F)c2)c(-c2cccc(F)c2)n1)NC1CCCCC1` belongs inactive: 45%; to `COc1ccc(-n2nc3c(N4CCC(C(=O)NCCc5ccccc5)CC4)nnc(C)c3c2C)cc1`, inactive: 80%; to `COc1cccc(CSc2nc(-c3ccccc3F)nc3c2Cc2c(CO)cnc(C)c2O3)c1`, inactive: 83%. `O=C(Cn1ncc2c(=O)oc3ccccc3c21)N1CCN(c2ccc(Cl)cc2)CC1`: the survival was inactive: 78%.

In the case of `CCOC(=O)c1c(NC(=O)COc2ccccc2Br)sc2c1CCCCC2`, the survival was inactive: 39%. As to `CC(C)(C)c1ccc(C(=O)N(Cc2ccc(F)cc2)Cc2ccco2)cc1`, the survival is inactive: 76%. In the case of `Cc1ccc(-c2nnc(Nc3ccccc3)c3ccccc23)cc1S(=O)(=O)N1CCN(C)CC1`, the survival is inactive: 70%. Regarding `COc1ccc2cc(CNc3ccc(C)cc3)c(=O)n(CC(=O)Nc3cccc(Cl)c3C)c2c1`, the survival was inactive: 73%. With `CCOC(=O)c1cc2oc(C)cc2n1CC(=O)NC1CC1`, the survival was inactive: 94%.

As to `COc1cc(Cl)c(C)cc1NC(=O)c1cnn(-c2ccc(F)cc2F)c1C1CCN(C(=O)OC(C)(C)C)CC1`, the survival was inactive: 57%.

As to `CCn1cc2nc(SCc3ccc(F)cc3)n(CCc3ccccc3)c(=O)c2n1`, the survival is inactive: 77%.

As for `CCN(CCCNC(=O)c1ccc(Sc2ccc(Cl)cc2)c(NC(C)=O)c1)c1ccccc1`, the survival was inactive: 84%.

As for `O=C(c1cccs1)N(Cc1cccnc1)c1nc2c(F)cc(F)cc2s1`, the survival was inactive: 69%. Turning to `COc1ccc(-c2nc(CSc3nnc(C)n4c3cc3oc(C)cc34)c(C)o2)cc1OC`, the survival was inactive: 89%. For the molecule `CCN(CC)S(=O)(=O)c1nnc(NC(=O)c2ccc(Br)cc2)s1`, the survival is inactive: 57%. With `Cc1ccc(S(=O)(=O)/N=C2\C=C(Sc3ncn[nH]3)C(=O)c3ccccc32)cc1`, the survival was inactive: 69%. To `O=S(=O)(c1ccccc1)c1nc(-c2cccc(Cl)c2)oc1N1CCOCC1` belongs inactive: 80%. As for `COc1ccc(CCNC(=O)C2CCCN(S(=O)(=O)c3ccc4c(c3)oc(=O)n4C)C2)cc1OC` (stereo unspecified), the survival is inactive: 78%. In the case of `O=C(O)CN1CCCCC1`, the survival is inactive: 91%.

Turning to `CCOc1ccc(-c2cc3nc(C4CCN(C(=O)OC(C)(C)C)CC4)c(C(=O)Nc4c(C)cccc4C)cn3n2)cc1`, the survival was inactive: 86%. For `Cc1ccc(CNC(=O)CCc2cn(Cc3ccc(C)cc3)c3ccccc23)cc1`, the survival is inactive: 83%.

With `CCOC(=O)c1c(C)sc(-c2c(-c3cccc(Cl)c3)[nH]c3c2c(=O)n(C)c(=O)n3C)c1O`, the survival is inactive: 114%. For `COc1ccc(NC(=O)C2=C(C)Nc3ncnn3C2c2ccc[nH]2)cc1` (stereo unspecified), the survival was inactive: 83%. As to `Cc1cc(C)c(Cn2c(=O)n(CCCCC(=O)NCc3ccccc3Cl)c(=O)c3ccccc32)c(C)c1`, the survival is inactive: 90%. To `CC1=NN(c2ccccc2)C(=O)C1(O)C1C(=O)c2ccccc2C1=O` (stereo unspecified) belongs inactive: 110%.

As to `CCC(=O)Nc1ccccc1-c1nc2ccccc2n(C(CC)C(=O)Nc2cccc(Cl)c2)c1=O` (stereo unspecified), the survival was inactive: 48%.

For `CC(=O)Nc1ccc(NC(=O)C2CCN(c3cnccn3)CC2)cc1`, the survival was inactive: 84%.

With `Fc1ccc2c(c1)-c1c(cnc3cc(-c4ccc(Cl)cc4)nn13)CO2`, the survival is inactive: 65%. For `CC(=O)N1CCc2cc(CNC(=O)Nc3ccc(Br)c(C)c3)ccc21`, the survival was inactive: 85%. With `COc1cccc(NC(=O)c2csnn2)c1`, the survival was inactive: 92%. Take `Cc1c(C(=O)N(C)C)sc2c1c(=O)n(-c1ccc(F)cc1)c(=O)n2Cc1ccccc1C#N`: the survival is inactive: 88%.
